In publication PMC4242493:
The list shows a part of the results. The list includes weakly bound sequences.

Molecular target: MaxL homodimer (UniProt P61244)
Assay: universal protein-binding microarray (PBM)
Conditions: PBS-based mixture, 10 nM His-tagged protein dimer, 2% milk, 200 ng/uL BSA, 50 ng/uL salmon testes DNA, 0.02% TX-100; detection with Alexa 488 anti-His …; high values mean tight binding; most listed sequences are background and not binding sites; double strand, one strand shown

Chain of UniProt P61244 (P61244 whole entry): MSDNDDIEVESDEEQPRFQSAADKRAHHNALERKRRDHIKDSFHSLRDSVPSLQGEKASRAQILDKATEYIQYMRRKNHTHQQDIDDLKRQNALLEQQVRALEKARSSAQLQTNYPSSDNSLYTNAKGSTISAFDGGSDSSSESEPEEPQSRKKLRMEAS

Sequence | binding signal (normalized occupancy)
GGCTCTAC | 0.0717
AAACCCCC | 0.0846
AAGTATGC | 0.076
ATGATATA | 0.088
ATGCTTAA | 0.081
GCTAGCCA | 0.0722
ATGTTGGA | 0.0805
CCGTGTCG | 0.075
CTTCTTGA | 0.075
AACCGGGC | 0.0685
CAAACAAC | 0.0768
CATAGGCC | 0.0736
GAGCCCCC | 0.0723
CACATGCA | 0.138
ATGGTTGG | 0.0735
ATTGCCCA | 0.0761
CCGTAACG | 0.071
CGGTACAA | 0.0766
GTTGTCAA | 0.076
CAAAGATA | 0.0721
AATTGACC | 0.0727
CGCCGAGC | 0.0678
CAGCTTAG | 0.0737
AACGCTGT | 0.0729
AAGAAAAT | 0.0724

Sequence | binding signal (normalized occupancy)
CACATTGC | 0.0923
CATAGGCA | 0.0823
CCCTGAGC | 0.0702
CCGTCCAA | 0.0686
CAGAAGAG | 0.0759
AAATCCTG | 0.0711
AGACCCAG | 0.075
CATAGATA | 0.0841
CAGGTCGG | 0.0699
ATCGGTAA | 0.0719
CTCAACTC | 0.0709
GAGTGGCA | 0.0766
ATCCCGGG | 0.0723
TCGCCAAA | 0.0685
ACGAGAGT | 0.0778
CACACCCA | 0.0877
AGTGGGGC | 0.078
CCCGAGAA | 0.0681
ATCTTACA | 0.078
ATTACGAC | 0.077
CTCCGGGA | 0.068
AAGTTTGT | 0.0719
GAAGGCAC | 0.0754
CGCAGTTA | 0.075
AGCAGCAT | 0.082

Sequence | binding signal (normalized occupancy)
TAGTACGA | 0.0745
ACGCGACC | 0.0824
CGGTAACA | 0.0761
ATAAAAAC | 0.0768
CTAATGAA | 0.0783
AGTATCAA | 0.0766
AAAACACT | 0.0729
GGGTTAAC | 0.0738
GTGTAAGA | 0.077
AAAAGTGC | 0.0747
TCCGTAGA | 0.0698
AACGCAGT | 0.0712
ATCACAAC | 0.0793
ATACATCC | 0.0805
AATATTAG | 0.0746
AGTTTTGA | 0.0696
AGTCACCA | 0.0772
AACCAACT | 0.0709
GTGCTTGA | 0.0758
GGGGGCCA | 0.0752
CTCTTAAA | 0.0712
ATGGCCCC | 0.0839
ATCCAGGG | 0.0695
ATCAGAAG | 0.0773
CTGGAGAC | 0.0695

Sequence | binding signal (normalized occupancy)
CCATCTCA | 0.0829
GCAGCTGC | 0.0718
GTATATTA | 0.0866
GGCGAAGA | 0.0728
ATACCGAC | 0.0791
TCGAGCAA | 0.0693
AGGAATGG | 0.0747
ACGATGGA | 0.0778
TGTGAACA | 0.0858
CACCCTTA | 0.0766
GTACATAC | 0.0862
CCTTGACA | 0.0776
CAAGTAGG | 0.0732
GAAACTGC | 0.0688
CTCGCAGA | 0.0714
ACACTCTC | 0.08
ACTATGTG | 0.0847
AGCTCGAG | 0.0709
TAGGTGAA | 0.0807
GATCTGGC | 0.073
CAGTACTC | 0.0744
ATGGGTTC | 0.0823
AATGAGAC | 0.0746
ACGGCCTA | 0.072
GACTCAAC | 0.0699

Sequence | binding signal (normalized occupancy)
AGGGCGTG | 0.0846
CCCCTTCG | 0.0696
CGCCTCAC | 0.074
CGGGTCAC | 0.076
ACAGTAAC | 0.0773
ACCCTCCT | 0.0774
ATTAGCAA | 0.076
CCTGACGA | 0.0754
CCCCAGCC | 0.0755
AAGAATCT | 0.077
CTCTACAG | 0.0764
AACATTTA | 0.0795
CCCACGAC | 0.0824
CACTGAAG | 0.0655
AAGACCGG | 0.072
GGCACCTA | 0.0739
TACACGGA | 0.0772
ACATCAGT | 0.0736
TACGTTAA | 0.0789
ATGATCGC | 0.0826
CCGAAAGC | 0.0673
AGCCGATA | 0.0735
CCGGGACC | 0.0643
ACCCGTAT | 0.0754
CAGGGGGC | 0.0703

Sequence | binding signal (normalized occupancy)
CTCATGCC | 0.0954
GCTTTAAA | 0.0688
ATGCATTC | 0.0908
CTTTACTA | 0.0697
GAGGGGAA | 0.0755
GAAATACC | 0.0735
CGGTTCCA | 0.0708
GTGTTATA | 0.0829
AAGTTATT | 0.0742
GATCGCGC | 0.0764
GATGGCGA | 0.0738
CGCAACGC | 0.0733
AATTATGC | 0.081
GGATTCAA | 0.0767
AGAGACCA | 0.0683
TACCCATA | 0.0845
CACTATCG | 0.0754
TGAAGACA | 0.0784
CGATTTAC | 0.0735
TGCCGTAA | 0.0796
GGATTGAA | 0.0718
CCCCTGTC | 0.0787
CCGTCTCC | 0.0692
CGCCCGTC | 0.0676
CAGTCTCG | 0.0705

Sequence | binding signal (normalized occupancy)
CATACTTC | 0.0816
TGGTGAAA | 0.0804
ATGTCAAT | 0.0778
CAGGTGCG | 0.0849
TCGATTAA | 0.0834
AGACACGC | 0.0922
GCGAATAC | 0.0754
GCCTTCCC | 0.0737
CGTGTCTC | 0.0941
CGCTACGA | 0.0757
GGGAGCTA | 0.0726
AAGAATCG | 0.07
CACTGCTA | 0.0717
GGACCAAC | 0.0763
AATACACG | 0.0912
CCACGCAG | 0.0904
GCGGAGGA | 0.076
ACAGGTGG | 0.0985
AGTCAGAT | 0.0722
AATCATTG | 0.0748
CTTCACAC | 0.0777
TCCTTACA | 0.0842
AAGCGTCC | 0.07
ATTAATCC | 0.0734
ATCCCGAA | 0.0714

Sequence | binding signal (normalized occupancy)
GGGCTCTA | 0.0735
CGTGTTAC | 0.0896
CTTTAGCC | 0.0736
TATCTTAA | 0.0728
AAGTTGGT | 0.0732
CGCCCACA | 0.0813
GAAGTGAA | 0.0708
AGGTCACC | 0.0702
AATATAAC | 0.0791
ATGTTAAG | 0.084
ATTACAAC | 0.0852
GCCCCTGA | 0.0732
CCTCACCG | 0.0707
ATGCGAGC | 0.0809
AGCTGCAG | 0.0729
GCCGCGGC | 0.0708
CATATGCA | 0.0978
AGTGATTA | 0.0807
AAGGCTAC | 0.0687
TACGCATA | 0.0842
CAAAATAG | 0.0747
ATTCGCTA | 0.075
TCTGTTAA | 0.0739
ATTCGTGA | 0.0769
CAGTCCCA | 0.0778

Sequence | binding signal (normalized occupancy)
GCGGCACA | 0.0751
ATGTGCTC | 0.0926
ATTCCCTA | 0.0755
GTTGACCA | 0.0733
CTAGTGCC | 0.0687
AGAGTGCT | 0.0771
ATTGGGTG | 0.0767
AACAACTG | 0.0714
CCCAAGGG | 0.0673
GTAGTTTA | 0.0707
CTCCGGAC | 0.0726
GTTGTAGA | 0.0719
ACTGGGAC | 0.0728
GAGACGCA | 0.0759
GGGCGATA | 0.0769
TGCGAGCA | 0.0733
AAGGTTTA | 0.0757
CAGTACCC | 0.0847
GTTAGTGA | 0.0792
AAGCCAGC | 0.0666
TTACACAA | 0.0758
GCGGTAAC | 0.0714
ATTTCCTC | 0.0778
CCGGTCAA | 0.073
GGCGACAC | 0.0713

Sequence | binding signal (normalized occupancy)
ACGACTCA | 0.0789
CAACATAA | 0.0815
ATTTGGAG | 0.0716
ACGTTCCT | 0.0819
CGCAAATC | 0.0728
AGTGTATA | 0.0852
ATACAGTC | 0.0816
CGGACCTA | 0.0696
GGCAGTAA | 0.0753
CTTAAAGA | 0.0714
AAGACACG | 0.0809
AAACGCCG | 0.0685
AGGCTCTA | 0.0717
GTCGACCA | 0.073
AGCCCGTC | 0.0707
AGATACGA | 0.0754
ACGTTGCC | 0.0843
CGGAGTCC | 0.0642
CCGGAAAC | 0.07
CTCCACGC | 0.101
ATGCATGA | 0.0997
ACACCGCG | 0.082
CATATTGA | 0.0806
GAAAATCC | 0.0708
CCCCAGTC | 0.0728

Sequence | binding signal (normalized occupancy)
CCCGTGTC | 0.0814
ACCACACC | 0.0856
AAGGCGAA | 0.0734
CAGCTGCA | 0.0759
AGTCGCTG | 0.0715
TATCTTGA | 0.077
CAGACCGC | 0.0735
CGAGAAGC | 0.0744
CATGACGC | 0.0855
TACAGATA | 0.0789
CCTGCCGA | 0.0703
ATTGTGTC | 0.0772
ACTATGCT | 0.0755
ACTATTTA | 0.0729
TGGCAACA | 0.0766
ACATCCGA | 0.0718
AGTGTAAG | 0.077
ACGATGTC | 0.0826
ATCTCAGC | 0.0746
ATTACTAC | 0.0834
AAGGACAA | 0.0706
AACTTCGA | 0.0706
ATCCCTGC | 0.0783
CTGCCCCA | 0.0784
CGTGCTTA | 0.0885

Sequence | binding signal (normalized occupancy)
CTCTAGCC | 0.0654
GCTTGGAC | 0.0725
CATAACCG | 0.0784
CGACGCTA | 0.0724
CAGTTACG | 0.0717
AGGAGAAG | 0.0766
TGCGCGAA | 0.0717
CAGAGATC | 0.0735
GGTTCATA | 0.0826
GCAAAAGC | 0.0703
CTATGCTA | 0.0768
ATGTGCAA | 0.0875
CGATCTGC | 0.0717
CTTTGGCC | 0.0687
CTTTCATA | 0.0748
ACAAATCA | 0.0773
CGGGAAAC | 0.0725
AGGATGAC | 0.0813
ACACGGGT | 0.0852
ATCCAGCG | 0.0704
CCGCTACC | 0.0743
ACACGACC | 0.0822
ATGACGCC | 0.0776
AGGATACT | 0.0731
AATAAGCG | 0.0726

Sequence | binding signal (normalized occupancy)
ACCCCACC | 0.0832
AATCCCGC | 0.0737
ATTACTTC | 0.074
CCTCGGCG | 0.0728
TACAAAAA | 0.0728
TAGGCAGA | 0.069
TTCGACAA | 0.0727
AGGAAGGC | 0.0736
CCGATCTC | 0.0688
ACTCCATA | 0.0898
ATAACAGG | 0.0768
CCGATCTA | 0.0769
AGGCCAAA | 0.0651
ATATTCTC | 0.0852
CAGGCTTC | 0.0633
CCTCTTGC | 0.07
ACCACTTC | 0.0785
CACTAAAC | 0.0792
AGCTGGAA | 0.0709
TTCTCAAA | 0.0808
GCAGAACA | 0.0764
ATACAGGA | 0.0784
AACAGGAT | 0.0759
GTCTTTTA | 0.0741
AATGAACC | 0.0718

Sequence | binding signal (normalized occupancy)
CAAAGTCA | 0.0818
ACTGTGGG | 0.0757
TATCACCA | 0.0825
CGGCCTTC | 0.0657
ACCGCCCC | 0.0773
AGACAGTG | 0.0728
ACATCAAC | 0.0756
AGGCAGAG | 0.0677
GCCGGACC | 0.0716
GCCATGCC | 0.0963
GAACGTGA | 0.0801
ATCAAATC | 0.0778
AAATCTAG | 0.0755
TGCAAACA | 0.0821
CGGAGGCA | 0.0694
TTGTGAAA | 0.0759
AGTGGGTG | 0.0863
AAGTCCGA | 0.0717
CCCATCGC | 0.0739
